# Measurements published in PubChem BioAssay AID488969 (Vanderbilt High Throughput Screening Facility, 2010).
# In all, about 110,000 compounds were measured (“z-score”: median about -0.1, highest 2% from about 2 on). Some of the results follow. Calls of active or inactive are those of the source.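 Rule for the calls: active = z-score in the third read window above 3 or below -3; inactive = the rest.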
# Target: Metabotropic glutamate receptor 8 (Rattus norvegicus) (UniProt P70579)
# Test: mGluR8 Gi/Go-coupled signaling modulation – cell-based, rat, thallium flux, HTS, primary screen (AID 488969)
# Conditions: HEK293 rat mGluR8, GIRK (G protein-gated inwardly rectifying potassium channel) thallium flux, FluoZin2; at 10 µM; stronger effect = higher value; submaximal glutamate (EC20) added with thallium
# UniProt P70579, sequence (P70579 whole entry, looked up): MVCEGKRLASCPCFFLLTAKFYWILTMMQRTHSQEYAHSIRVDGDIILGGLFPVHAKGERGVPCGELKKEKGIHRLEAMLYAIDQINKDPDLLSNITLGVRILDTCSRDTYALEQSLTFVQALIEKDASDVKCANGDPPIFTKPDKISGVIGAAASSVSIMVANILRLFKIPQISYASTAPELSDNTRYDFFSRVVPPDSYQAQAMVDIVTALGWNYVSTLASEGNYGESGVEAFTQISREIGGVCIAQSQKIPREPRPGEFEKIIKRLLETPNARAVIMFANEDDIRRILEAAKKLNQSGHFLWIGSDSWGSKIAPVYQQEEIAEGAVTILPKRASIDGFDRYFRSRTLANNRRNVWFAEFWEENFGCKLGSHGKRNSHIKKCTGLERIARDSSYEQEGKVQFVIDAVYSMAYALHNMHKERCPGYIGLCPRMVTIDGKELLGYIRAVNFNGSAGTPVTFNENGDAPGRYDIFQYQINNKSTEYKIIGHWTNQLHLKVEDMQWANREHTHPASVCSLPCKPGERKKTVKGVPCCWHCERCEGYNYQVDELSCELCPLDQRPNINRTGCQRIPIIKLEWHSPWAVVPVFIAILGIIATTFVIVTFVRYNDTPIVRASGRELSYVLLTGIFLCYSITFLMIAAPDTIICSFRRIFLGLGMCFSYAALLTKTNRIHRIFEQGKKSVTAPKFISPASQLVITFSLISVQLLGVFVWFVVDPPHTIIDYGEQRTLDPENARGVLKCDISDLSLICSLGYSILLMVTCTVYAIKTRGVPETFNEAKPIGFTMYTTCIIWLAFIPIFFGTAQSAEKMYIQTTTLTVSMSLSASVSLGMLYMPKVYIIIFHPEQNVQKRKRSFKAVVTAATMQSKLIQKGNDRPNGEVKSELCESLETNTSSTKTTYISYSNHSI
row,SMILES,z-score
1,CN(C)CCCNC(=O)/C=C/c1ccc2c(c1)OCO2,-0.0826
2,CC(=O)CCc1ccc(OCCCCn2cncn2)cc1,0.306
3,O=S(=O)(Nc1cccnc1)c1cc(Cl)ccc1Cl,-0.00571
4,CCCOC(=O)c1cc(-c2ccc(C=O)o2)ccc1Cl,-0.555
5,Cc1ccc(-c2csc3nc(SCC(N)=O)n(Cc4ccccc4)c(=O)c23)cc1,1.22
6,O=C1OC(C(=O)Nc2nccs2)Cc2ccccc21 (stereo unspecified),-0.376
7,CCOc1cc2[nH]c(=S)n(CCCC(=O)NCc3ccco3)c(=O)c2cc1OCC,-0.26
8,CCOC(=O)NC(NC(=S)Nc1ccccc1OC)C(Cl)(Cl)Cl (stereo unspecified),0.0524
9,COc1ccc(-c2nncnn2)cc1,0.265
10,Cc1cccc(-n2c(-c3ccco3)nc3nc4ccccc4nc32)c1,-0.0341
11,CCOc1ccc(OCC(=O)OCn2c(SC)nnc(C)c2=O)cc1,-0.577
12,CCOC(=O)Cn1nnc2c(sc3nc4c(c(-c5ccccc5)c32)CCC4)c1=O,0.109
13,Fc1ccc(/C=N/n2c(-c3cccs3)n[nH]c2=S)cc1,active: 4.92
14,Oc1ccc2oc3c(c2c1)CCCC3,-0.132
15,CCN1C(=O)/C(=C/c2cccs2)S/C1=N\S(=O)(=O)c1ccc(C)cc1,-0.261
16,CC(NC(=O)c1ccco1)C(c1cccs1)N1CCN(c2ccccc2F)CC1 (stereo unspecified),-0.556
17,O=C1OCCC1N1C(=O)c2ccccc2S1(=O)=O (stereo unspecified),-1.76
18,Cc1onc(-c2ccccc2Cl)c1C(=O)N1CCN(c2cccc(Cl)c2)CC1,0.229
19,O=C(CCCc1nc2ccccc2s1)N1CCN(c2ccccc2F)CC1,-0.776

row,SMILES,z-score
1,CCn1c(=O)cc(SCC(=O)N2CCN(c3ccccc3F)CC2)c2ccccc21,-1.15
2,CCCCOc1ccc(-c2nnn(CC(=O)NCc3ccco3)n2)cc1,2.02
3,Cc1c(C2C(C#N)=C(N)N(c3ccccc3C#N)C3=C2C(=O)CCC3)cnn1C (stereo unspecified),-0.0607
4,CC(=O)N1CCN(c2ccc(NC(=O)c3ccc(N4CCCC4)c([N+](=O)[O-])c3)cc2Cl)CC1,-0.0828
5,CN(C(=O)c1cc2nc(-c3ccco3)cc(C(F)(F)F)n2n1)C1CCCCC1,-0.163
6,COc1ccc(-c2cc3nnc(-c4ccccc4)nc3s2)cc1,0.144
7,COc1ccc(S(=O)(=O)N2CCN(CC(=O)Nc3cccc(F)c3)CC2)cc1,-0.195
8,Cc1cc(C)nc(SCc2nnc(SCC(=O)NCc3ccco3)n2-c2ccccc2)n1,-0.73
9,O=C(NCC1CCCO1)c1nc2c(nnn2Cc2ccccc2Cl)c(=O)[nH]1 (stereo unspecified),-0.458
10,O=C(Nc1ccc(F)cc1)c1ccc(CSc2ccccc2)o1,-0.6
11,CCOC(=O)C(/C(C)=N/NC(=O)C1CC1c1ccccc1)C(C)C (stereo unspecified),0.0328
12,COc1ccc(NC(=O)CN(C)C(C)C(=O)N2CCCCC2)cc1 (stereo unspecified),0.385
13,CN1C(=O)CC(NNC(=O)c2ccccc2)C1=O (stereo unspecified),-0.163
14,C=CCn1c(SC(C)C(=O)NCCC2=CCCCC2)nc2ccccc2c1=O (stereo unspecified),-0.6
15,C=CCNS(=O)(=O)c1ccc(OCC(=O)OC)cc1,0.201
16,COc1cc(C2c3c(oc4c(C)cc(C)cc4c3=O)C(=O)N2Cc2cccnc2)cc(OC)c1OC (stereo unspecified),0.524
17,CC(C)(C)c1nc2ccccc2[nH]1,-0.0902
18,O=C(CCCC(=O)OCC(Cl)=C(Cl)Cl)Nc1cccc(F)c1,-0.293
19,CC(C)(C)c1ccc(C(=O)NCc2ccc(Cl)cc2)cc1,-0.0762

row,SMILES,z-score
1,O=C(NCc1ccccc1C(F)(F)F)C1CC(c2ccccc2[N+](=O)[O-])=NO1 (stereo unspecified),-0.21
2,Cn1c(=O)cc(OCC(=O)Nc2ccccn2)c2ccccc21,-0.376
3,BrC(=C\c1ccccc1)/C=N/N1CCN(c2ccccn2)CC1,-0.141
4,O=C(c1ccncc1)N1CCN(C(=O)c2ccco2)CC1,0.325
5,COc1ccc2[nH]c3nc(SC(C)C)nnc3c2c1,0.0617
6,CCOC(=O)c1cnc2ccc(C)cc2c1Nc1ccc(N2CCOCC2)cc1,-0.272
7,COc1cnc(-c2ccccn2)nc1Oc1cccc(Cl)c1,-0.708
8,Cc1ccc(NC(=O)CSCC(=O)Nc2ccc(N3CCOCC3)c(Cl)c2)cc1,0.102
9,Cc1csc(=NC(=O)c2ccccc2)n1Cc1ccco1,-0.784
10,Cc1noc(NS(=O)(=O)c2ccc(NC(=O)c3ccc(Br)o3)cc2)c1C,-0.272
11,O=C(CSc1nnc(-c2cccs2)n1-c1ccccc1)N1CCN(C(=O)c2ccco2)CC1,-2.78
12,CCOC(=O)CCc1c(C)c(C#N)c2nc3ccccc3n2c1-n1ccnc1C,-0.0505
13,Cc1c(O)ccc(/C(Cc2ccc3ccccc3n2)=N\O)c1O,-0.308
14,CCCCCn1ccc(=N)cc1,1.99
15,Cc1cccc(/C=C2\CCC(=C3SCCCS3)C2=O)c1,0.246
16,O=C(NC1CCCCCCC1)NC1CCCCC1,0.255
17,COc1cc(C)c(Br)cc1S(=O)(=O)N1CCOCC1,-0.212
18,COc1ccc(OCC(=O)Nc2cc3oc4ccccc4c3cc2OC)cc1,-0.347
